Reference: US5491135A (priority 1993, dated 1996)

Test system: DHPG resistant HCMV
Test: microbe, parasite or virus in culture
Procedure: These experiments were performed to confirm the in vitro efficacy of the PALA at a concentration of 10 μg/ml during HCMV infection. In vitro infection on Hs68 cell monolayers and efficacy evaluations were performed for the following HCMV virus isolates: [1] AD169, a standard laboratory cytomegalovirus strain; 2] a DHPG resistant HCMV isolate (Thymidine kinase resistant DHPG; […] . This study also evaluated the reduction in HCMV titers during active suppression with the experimental drug and with DHPG.
10^4 PFU/ml HCMV of either: [1] strain AD 169; [2] DHPG resistant HCMV; or [3] the recently isolated clinical HCMV strain characterized as described above was inoculated onto confluent Hs68 cell monolayers (35 mm culture dishes) and adsorbed to the monolayers for 1 hour at 37° C. The inoculum was aspirated and medium containing the experimental drug or DHPG, or no drug in the medium was added to the HCMV-inoculated monolayer. Medium containing the appropriate drug additives was changed daily. At 24 hour intervals, from day 1 through day 7 PI, the HCMV-inoculated drug-treated monolayers were handled as follows: The supernatant containing cell-free virus was removed from the cells and the titer of HCMV cell-free virus in the supernatant was determined by standard plaque assay. The cell monolayer was washed with HBSS to remove residual drug, and the cells harvested by scraping. The cells were sonicated and centrifuged to pellet cell debris. The titer of the cell-free HCMV released from the infected cell monolayer was determined. The efficacy of the drug was represented as reduction in HCMV PFU/ml compared to non-drug-treated HCMV PFU/ml and to DHPG HCMV inhibition.

## O=C(O)C[C@H](NC(=O)CP(=O)(O)O)C(=O)O [PALA]
Human betaherpesvirus 5, Hs68, read-out: viral yield reduction
  log reduction at 10 µg/mL: 2 to 3
Day 0 PI
  Cell associated HCMV titer: 10^2 PFU/ml
  Cell free (supernatant) HCMV titer: 10^5 PFU/ml
Day 1 PI
  Cell associated HCMV titer: 10^3 PFU/ml
  Cell free (supernatant) HCMV titer: 10^1 PFU/ml
Day 2 PI
  Cell associated HCMV titer: 10^1 PFU/ml
  Cell free (supernatant) HCMV titer: 10^1 PFU/ml
Day 3 PI
  Cell associated HCMV titer: 10^1 PFU/ml
  Cell free (supernatant) HCMV titer: 10^2 PFU/ml
Day 4 PI
  Cell associated HCMV titer: 10^1 PFU/ml
  Cell free (supernatant) HCMV titer: 10^2 PFU/ml
Day 5 PI
  Cell associated HCMV titer: 0 PFU/ml
  Cell free (supernatant) HCMV titer: 10^1 PFU/ml
Day 6 PI
  Cell associated HCMV titer: 10^1 PFU/ml
Day 7 PI
  Cell associated HCMV titer: 10^1 PFU/ml

## Nc1nc(O)c2ncn(COC(CO)CO)c2n1 [DHPG, reference compound]
  reduction of HCMV titer: not effective in reducing the titer of HCMV
Day 0 PI
  Cell associated HCMV titer: 10^2 PFU/ml
  Cell free (supernatant) HCMV titer: 10^5 PFU/ml
Day 1 PI
  Cell associated HCMV titer: 10^3 PFU/ml
  Cell free (supernatant) HCMV titer: 10^3 PFU/ml
Day 2 PI
  Cell associated HCMV titer: 10^3 PFU/ml
  Cell free (supernatant) HCMV titer: 10^4 PFU/ml
Day 3 PI
  Cell associated HCMV titer: 10^5 PFU/ml
  Cell free (supernatant) HCMV titer: 10^5 PFU/ml
Day 4 PI
  Cell associated HCMV titer: 10^5 PFU/ml
  Cell free (supernatant) HCMV titer: 10^5 PFU/ml
Day 5 PI
  Cell associated HCMV titer: 10^4 PFU/ml
  Cell free (supernatant) HCMV titer: 10^4 PFU/ml
Day 6 PI
  Cell associated HCMV titer: 10^4 PFU/ml
Day 7 PI
  Cell associated HCMV titer: 10^2 PFU/ml
